Results on 53 compounds are retold here after publication PMC4336329 (PLoS ONE, 2015).

In all, about 310,000 compounds went through this assay and about 2,200 (0.71%) showed an effect of 50% or more. Effects have a minus sign here. Some of the results follow.

In this assay the target is human ether-à-go-go-related gene (hERG) potassium channel (human, UniProt Q12809). The experiment in a line: primary screen, population patch clamp on CHO cells stably expressing hERG.
Sequence of human ether-à-go-go-related gene (hERG) potassium channel (Q12809 whole entry, looked up): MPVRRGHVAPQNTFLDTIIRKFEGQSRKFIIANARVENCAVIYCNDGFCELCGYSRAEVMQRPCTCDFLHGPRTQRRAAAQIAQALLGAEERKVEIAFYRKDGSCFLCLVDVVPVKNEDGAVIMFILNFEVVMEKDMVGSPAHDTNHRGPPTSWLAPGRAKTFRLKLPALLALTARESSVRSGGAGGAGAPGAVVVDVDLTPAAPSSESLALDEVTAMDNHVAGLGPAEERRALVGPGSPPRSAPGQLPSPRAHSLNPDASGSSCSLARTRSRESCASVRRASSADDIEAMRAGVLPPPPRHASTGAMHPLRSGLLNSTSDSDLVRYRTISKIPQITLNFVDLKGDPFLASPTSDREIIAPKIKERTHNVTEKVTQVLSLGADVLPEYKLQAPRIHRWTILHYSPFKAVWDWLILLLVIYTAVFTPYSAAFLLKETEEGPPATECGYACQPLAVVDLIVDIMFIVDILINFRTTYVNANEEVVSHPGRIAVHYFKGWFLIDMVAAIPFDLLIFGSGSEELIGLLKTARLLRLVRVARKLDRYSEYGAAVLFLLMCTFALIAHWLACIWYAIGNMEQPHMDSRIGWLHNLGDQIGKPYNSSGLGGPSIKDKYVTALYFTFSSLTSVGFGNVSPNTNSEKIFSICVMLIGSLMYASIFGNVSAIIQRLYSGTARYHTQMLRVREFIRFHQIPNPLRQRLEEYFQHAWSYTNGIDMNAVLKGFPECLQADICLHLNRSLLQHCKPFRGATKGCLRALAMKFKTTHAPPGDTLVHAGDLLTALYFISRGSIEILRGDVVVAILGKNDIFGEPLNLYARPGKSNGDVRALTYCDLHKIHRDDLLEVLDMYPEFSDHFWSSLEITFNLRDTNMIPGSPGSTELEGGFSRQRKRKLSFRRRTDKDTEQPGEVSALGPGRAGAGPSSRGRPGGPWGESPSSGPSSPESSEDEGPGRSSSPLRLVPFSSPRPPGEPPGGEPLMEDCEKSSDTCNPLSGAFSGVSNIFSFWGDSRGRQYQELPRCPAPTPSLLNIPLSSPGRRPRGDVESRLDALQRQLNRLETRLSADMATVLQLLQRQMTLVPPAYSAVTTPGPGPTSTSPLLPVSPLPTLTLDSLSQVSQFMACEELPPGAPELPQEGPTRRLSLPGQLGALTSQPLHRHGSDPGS
On to `CCOC(=O)N1CCN(CC(O)COC(CC)c2ccccc2)CC1.Cl` (centres unmarked), for which the “hERG current change (%, negative = inhibition) at 1uM” value is reported as 5.71%. Turning to `O=C(COc1ccccc1[N+](=O)[O-])Nc1ccc(NC(=O)c2cc3ccccc3o2)cc1`, the “hERG current change (%, negative = inhibition) at 1uM” value is listed as 5.41%.

As to `COc1ccc2nc(C)cc(N/N=C/c3cccc(OC)c3O)c2c1`, the “hERG current change (%, negative = inhibition) at 1uM” value worked out at 7.59%. In the case of `Cc1csc(=O)n1CCC(=O)OCc1nnc(-c2ccc([N+](=O)[O-])cc2)o1`, the “hERG current change (%, negative = inhibition) at 1uM” value was -23.6%. Under `CCN(CC)C(=O)c1nn(-c2ccccc2)c2c1C1CCC2(C)C1(C)C` (centres unmarked) stands 12.2%; under `COc1nc2ccccc2c(=O)n1-c1ccc(Cl)cc1`, 13.3%; under `COCCCN1C(=O)C(=O)/C(=C(/O)c2ccc(S(=O)(=O)N3CCOCC3)cc2)C1c1ccc(OC)cc1` (centres unmarked), 14.1%. Under `COc1ccc(/C=N/NC(=O)c2nc(Cl)c(Cl)c(N)c2Cl)cc1COc1ccc(F)cc1F` stands 9.06%; under `Cc1cc(O)c(-c2cc(O)c(C)cc2O)cc1O`, 5.42%; under `FC(F)(F)c1cc(-c2cccs2)nc2nc(N3CCOCC3)sc12`, 12.2%. With `COc1ccc(CN2C(=O)CSC2c2ccccn2)cc1` (centres unmarked), the “hERG current change (%, negative = inhibition) at 1uM” value came to 7.6%. The value for `O=C1c2ccccc2C(=O)N1Cc1nc(-c2ccncc2)no1` was 2.26%; that for `COC(=O)C1=C(C(=O)c2ccccc2)C(c2ccccc2)n2nnnc2N1` (centres unmarked) was 14.3%; that for `CCC1CCc2sc(C(=O)N(C)CC(=O)Nc3ccc(OC)cc3)cc2C1` (centres unmarked) was 5.22%. Under `CC(C)(C)NC(=O)CN(C(=O)CN1C(=O)C(=O)c2ccccc21)C(C)(C)C` stands 3.04%.

As to `COc1cc(S(=O)(=O)N(Cc2cccnc2)Cc2cccc(OC)c2OC)ccc1-n1cnnn1`, the “hERG current change (%, negative = inhibition) at 1uM” value was 2.4%. The value for `COC(=O)c1ccc(CSc2nnc(-c3ccccc3)n2C)o1` was 6.44%. The value for `CCCCc1nc2ccccc2n1CC(=O)NN` was 15.8%. Under `COC(=O)C1(O)CC(CC(C)C)=NN1C(=O)c1ccccc1` (centres unmarked) stands 1.04%; under `CCN(CC)S(=O)(=O)c1ccc2c(c1)nc(SCC(=O)NCC1CCCO1)n2CC` (centres unmarked), 18.2%. In the case of `CCN1CCC(NC(=O)Nc2ccc(F)cc2F)CC1`, the “hERG current change (%, negative = inhibition) at 1uM” value is -1.88%. Under `COc1ccc(CC(=O)N2CCN(C)CC2)cc1` stands -2.13%; under `CN(CC(=O)O)S(=O)(=O)c1ccc2c(c1)NC(=O)CC(=O)N2`, 13.9%; under `CC(C)C(NS(=O)(=O)c1ccc2c(c1)oc(=O)n2C)C(=O)N1CCN(Cc2ccccc2)CC1` (centres unmarked), 4.37%.

For `C/C=C\C(=O)Nc1cccc(C2=NOC3(C2)C[C@@H](C(N)=O)N(C(=O)COc2ccc(Cl)cc2)C3)c1` (some centres unmarked), the “hERG current change (%, negative = inhibition) at 1uM” value was found to be 11%.

As to `COc1cc(C(F)(F)F)c(C(=O)N(C)Cc2cccc(Cl)c2)cn1`, the “hERG current change (%, negative = inhibition) at 1uM” value turned out to be 10%. Under `O=C(O)c1ccc2ccccc2c1O.OCc1cc(C(O)CNCCCCCCOCCCCc2ccccc2)ccc1O` (centres unmarked) stands -8.45%. Under `COC(=O)Nc1ccccc1C(=O)N1CCC(O)(c2ccc(Cl)cc2)CC1` stands 1.26%; under `Cc1nn(Cc2ccccc2)c(C)c1/C=N/NC(=O)CNc1cccc(C(F)(F)F)c1`, 9.48%. Under `COc1ccccc1C(=O)NCC(=O)N1CCN(S(=O)(=O)c2ccccc2C(F)(F)F)CC1` stands 0.728%. As for `CCOc1ccc(-n2cc(C(=O)NCc3ccco3)c3cc(OC)c(OC)cc3c2=O)cc1`, the “hERG current change (%, negative = inhibition) at 1uM” value is reported as 14.8%. Under `Cc1cccc(C(=O)NNC(=O)c2csc(N3CCOCC3)n2)c1C` stands 3.4%; under `COc1cc(/C=N/NC(=O)COc2ccc(C)cc2)ccc1OC(=O)c1cccs1`, 18.7%. Under `N#Cc1c(-c2ccccc2Cl)cc(-c2ccccc2)[nH]c1=S` stands 1.86%; under `CN(Cc1c(F)cccc1Cl)C(=O)CNC(=O)c1ccc2c(c1)OCO2`, 13.8%; under `CCOC(=O)C1SC2(C(F)(F)C(F)F)CC1(O)c1c(c(OC)c3occc3c1OC)O2` (centres unmarked), -3.17%. With `O=C(c1ccc(S(=O)(=O)N2CCCCCC2)cc1)N(c1ccccn1)C1CCCCC1`, the “hERG current change (%, negative = inhibition) at 1uM” value is reported as 0.0925%. The value for `CC(Oc1ccccc1Cl)C(=O)N1CCCN(C)CC1` (centres unmarked) was 21.4%; that for `COc1ccc(-n2nc(C(=O)NCC(=O)Nc3cccc(Cl)c3)c3ccccc3c2=O)cc1` was 16.5%; that for `Cc1cccc(NC(=O)CSc2nc(C3CC3)nc3ccccc23)c1` was 4.82%.

Regarding `CN1/C(=C\C=Nc2ccccc2)C(C)(C)c2ccccc21`, the “hERG current change (%, negative = inhibition) at 1uM” value is recorded as -65%. Under `N=c1c2c(ncn1Cc1ccco1)Oc1cc(O)ccc1C2c1ccccc1` (centres unmarked) stands -69.5%; under `CC(C)[C@H]1C(=O)O[C@@H]2CCN3CC=C(COC(=O)[C@](C)(O)[C@]1(C)O)[C@H]23`, 2.55%. The value for `CC(Oc1ccccc1)C(=O)N=C1SC2CS(=O)(=O)CC2N1c1cccc(F)c1` (centres unmarked) was 11.7%; that for `COc1ccc(/C=C2\Sc3ccc(C(=O)N4CCN(Cc5ccccc5)CC4)cc3N(C)C2=O)cc1OC` was 8.54%; that for `O=C(O)CSc1nnc(C2COc3ccccc3O2)n1-c1ccccc1` (centres unmarked) was 20.6%. For `Cc1cc2oc(=O)cc(Cn3ccnc3)c2cc1O`, the “hERG current change (%, negative = inhibition) at 1uM” value is 14%. The value for `Cc1oc(-c2ccc(Cl)cc2)nc1CS(=O)CC(=O)NCc1ccc2c(c1)OCO2` (centres unmarked) was 15.3%; that for `Cc1ccc(C2=NN=C(NC(=O)CSc3nc(C)cc(C)n3)SC2)cc1` was 0.712%; that for `CC(=O)/C(=N\Nc1ccc(Cl)cc1)Sc1nnc(-c2ccccc2)n1-c1ccccc1` was 5.5%. Under `COCCNC(=O)/C(C#N)=C/C=C/c1ccccc1` stands 8.34%; under `O=C(Nc1ccc(Br)cc1)C1CCC(=O)N1Cc1ccccc1Cl` (centres unmarked), 12.3%; under `COc1c(Cl)cc(Cl)cc1/C=N/n1cnnc1`, 5.99%.
